# Data: the supplement of paper PMC10126150
# Sequences with one replicate were seen in a single cluster, so their values are uncertain.
# Tested on: ATP
# Test: switch fluorescence ratio, 500 uM ATP over buffer (Cy3 cluster intensity, sum of 5 cycles each) (fold (ratio)); higher = stronger signal-on switching upon ATP binding; sequences stand for … in TCGTCGGCAGCGTCAGATGTGTATAAGAGACAGTTTTTTTTTTTTTTTTTTTTTTTTT…TC
# Conditions: aptamer strand: ATP DNA aptamer (quencher-CACCTGGGGGAGTATTGCGGAGGAAGG + anchor), 100 nM annealed; ATP concentration: 500 uM; one replicate
# Procedure, shortened: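 Exposure to 500 uM ATP lasted 15 min at 22 °C before imaging, and a selection-buffer image was taken beforehand, for Cy3-labelled switching-strand clusters on a modified Illumina MiSeq flow-cell annealed to 100 nM quencher-labelled ATP aptamer. Five buffer/ATP cycles were run with NaOH stripping and re-annealing between them. The fluorescence ratio per cluster is summed target-cycle over summed buffer-cycle Cy3 intensity, averaged per switch-domain sequence. Clusters outside 100-1000 RFU were excluded.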
row,Sequence,switch fluorescence ratio
1,CCAATGCTGG,1.05
2,CCAATGTGCA,1.01
3,CCAATTGGAT,0.988
4,CCAATTGTG,0.959
5,CCAATTTTTT,1.03
6,CCACACTGCA,1.27
7,CCACAGGACT,1.17
8,CCACAGTACG,1.87
9,CCACAGTCG,1.08
10,CCACATTTGA,0.989
11,CCACCAGATT,1.25
12,CCACCCAGAA,1.18
13,CCACCCATAT,1.66
14,CCACCTAATA,1.35
15,CCACCTACTG,1.67
16,CCACGGGTCC,1.08
17,CCACGGTGAT,1.81
18,CCACGGTTGG,0.972
19,CCACGTATTC,1.33
20,CCACGTTGG,1
21,CCACTACTCT,1.18
22,CCACTAGCTC,1.4
23,CCACTATCTG,0.984
24,CCACTGCAGT,1.67
25,CCACTTATAT,1.04

row,Sequence,switch fluorescence ratio
1,CCAGAAGAAG,0.996
2,CCAGAAGGGA,1.01
3,CCAGACCATT,1.04
4,CCAGACCCGT,1.07
5,CCAGCGAGGC,2.38
6,CCAGCGGCTT,1.02
7,CCAGCGTATC,1.5
8,CCAGCTCATA,1.09
9,CCAGGAATC,1.31
10,CCAGGGATTA,1.01
11,CCAGGGGTGT,1.42
12,CCAGGGTTAC,1.05
13,CCAGGTAGGG,0.986
14,CCAGGTATAG,1.16
15,CCAGGTCCTT,1.07
16,CCAGGTCGAT,1.34
17,CCAGGTTCGC,1.06
18,CCAGTAACT,1.03
19,CCAGTATTC,0.994
20,CCAGTGAGAA,1.02
21,CCAGTGATC,1.06
22,CCAGTGCCCG,1.12
23,CCAGTGTATT,1.08
24,CCAGTTCTTT,1.02
25,CCATAACGGT,1.65

row,Sequence,switch fluorescence ratio
1,CCATAACTTT,1
2,CCATAGGAGA,1.03
3,CCATATGGAA,1.05
4,CCATCAGTGC,1.93
5,CCATCATGCT,1.02
6,CCATCCTAAG,1.02
7,CCATCCTAT,1.01
8,CCATCCTGCA,2.51
9,CCATCGAGTA,1.02
10,CCATCTCCAA,1.13
11,CCATGCATTA,1.34
12,CCATGGAAGC,1.02
13,CCATGGGAGT,1
14,CCATGGGTC,0.964
15,CCATGTATC,0.996
16,CCATGTCGA,1.01
17,CCATGTGGTT,1.01
18,CCATGTTCGT,1
19,CCATTACTGG,0.998
20,CCATTCAACG,1.02
21,CCATTCAGCG,1.06
22,CCATTCGGGG,1.05
23,CCATTCTTTG,1.01
24,CCATTGAGGG,1.03
25,CCATTGTTGG,1.03

row,Sequence,switch fluorescence ratio
1,CCATTGTTTC,1
2,CCATTTCGAG,1
3,CCATTTGCTT,1.02
4,CCCAAAAGCT,1.05
5,CCCAAGGTAT,1.15
6,CCCAATGCAT,1.05
7,CCCAATGGGT,0.994
8,CCCAATTCGG,1.08
9,CCCACGGCTG,1.23
10,CCCACGTGCG,1.03
11,CCCACGTGGT,1
12,CCCACTAGGC,1.05
13,CCCAGAACCG,1.07
14,CCCAGAGTGG,1.73
15,CCCAGCCTCT,1.02
16,CCCAGGGTT,1.89
17,CCCAGTACTG,1.11
18,CCCAGTGCTG,1.15
19,CCCATAGCCG,1.01
20,CCCATATCAG,0.982
21,CCCATCAGGG,1.05
22,CCCATCGTAC,1.51
23,CCCCAACCCC,1.33
24,CCCCAAGAAA,1.13
25,CCCCAATTCG,1.17

row,Sequence,switch fluorescence ratio
1,CCCCACAGCT,1.22
2,CCCCACGTTG,1.56
3,CCCCAGAAAA,1.17
4,CCCCAGCTCC,1.8
5,CCCCATACGG,1.38
6,CCCCCGAGGA,1.3
7,CCCCGCACGT,6.39
8,CCCCGGCGAC,4.87
9,CCCCGGTCAA,4.32
10,CCCCGGTCTT,1.07
11,CCCCGTAAGT,2.98
12,CCCCGTCAAT,1.01
13,CCCCTATTTT,0.995
14,CCCCTCTG,1.08
15,CCCCTCTTTA,1.03
16,CCCCTGCTCC,2.03
17,CCCCTGGTGG,2.99
18,CCCCTTGTCT,1.02
19,CCCGAACCCG,1.04
20,CCCGAGCGTG,1.04
21,CCCGAGCTGG,0.968
22,CCCGATGAGA,1.02
23,CCCGCTTAGG,1.12
24,CCCGGCGCCC,1.01
25,CCCGGGGATG,1.01

row,Sequence,switch fluorescence ratio
1,CCCGGGTTGA,1.03
2,CCCGGTCAGT,1.03
3,CCCGGTCTTA,1
4,CCCGGTGCCC,1.47
5,CCCGGTGGTT,1.09
6,CCCGGTGTCG,0.982
7,CCCGGTTGCA,1.1
8,CCCTAATAAA,1.04
9,CCCTACTGGA,1.13
10,CCCTAGATAG,1.28
11,CCCTAGGGA,1.16
12,CCCTATCCCT,1.09
13,CCCTCGGAGT,1
14,CCCTCTAATC,1.15
15,CCCTGATTGG,1.04
16,CCCTGCGTCC,1.56
17,CCCTGCGTCT,1.02
18,CCCTGGGGAT,4.2
19,CCCTTTGTTG,0.992
20,CCGAAAACAT,1.06
21,CCGAAACCTG,1.27
22,CCGAAATCGG,1.18
23,CCGAAATTGT,1.2
24,CCGAACAGGT,1.06
25,CCGAAGATTA,1.87

row,Sequence,switch fluorescence ratio
1,CCGAATAGGT,0.96
2,CCGAATCACA,1.32
3,CCGAATCAGC,2.18
4,CCGAATGGAG,0.994
5,CCGAATGGTT,0.982
6,CCGACGGATT,4.82
7,CCGAGACTAC,3.61
8,CCGAGGTCTC,1.39
9,CCGAGGTTAG,1.56
10,CCGAGTGGGA,0.963
11,CCGATAAGGG,1.07
12,CCGATGCTCG,1.19
13,CCGATGGCGT,1.28
14,CCGATGTCAG,1.26
15,CCGATTAATT,1.14
16,CCGATTTTCT,0.993
17,CCGCAGGTAA,1.58
18,CCGCCAACTA,2.58
19,CCGCCCAGAA,1.75
20,CCGCCCCCTG,2.2
21,CCGCCCTTTT,1.93
22,CCGCGAAGGC,2.14
23,CCGCGATGGT,2.27
24,CCGCGCGAAT,1.93
25,CCGCGCTTGG,1.79

row,Sequence,switch fluorescence ratio
1,CCGCGGCGGT,1.01
2,CCGCGGTTCC,2.58
3,CCGCTAATGT,3.84
4,CCGCTAATTT,5.19
5,CCGCTAGAGT,2.81
6,CCGCTCCGGC,1.53
7,CCGCTGAGGA,1.23
8,CCGCTGGAGC,1.68
9,CCGCTGTCGC,2.12
10,CCGCTGTTCG,1.77
11,CCGCTTAATG,2.14
12,CCGCTTAGTA,1.37
13,CCGCTTAGTG,1.4
14,CCGGAAGGCG,1.03
15,CCGGACCTGG,1.07
16,CCGGACCTTT,1.06
17,CCGGACGATT,1.1
18,CCGGAGTACG,2.98
19,CCGGATAGAT,1.01
20,CCGGATGGGC,1.08
21,CCGGATGTGG,1.01
22,CCGGCAACTG,1.28
23,CCGGCAGCGA,4.07
24,CCGGCAGCTG,1.12
25,CCGGCCGGTG,1.08
